The text below walks through data of publication PMC7819943, “Rice protein-binding microarrays: a tool to detect cis-acting elements near promoter regions in rice”.

The other results are listed elsewhere or left out.

The experiment concerns the target T1, OsWOX13 (Oryza sativa, UniProt Q5QMM3 1-267).
T1 sequence: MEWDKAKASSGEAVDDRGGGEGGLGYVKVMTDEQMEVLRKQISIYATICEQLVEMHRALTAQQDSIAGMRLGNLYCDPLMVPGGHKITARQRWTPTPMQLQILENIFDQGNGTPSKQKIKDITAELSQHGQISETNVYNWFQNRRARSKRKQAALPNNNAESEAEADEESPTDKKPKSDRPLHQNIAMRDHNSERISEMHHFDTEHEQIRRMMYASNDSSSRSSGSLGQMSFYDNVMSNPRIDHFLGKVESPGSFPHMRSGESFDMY
Put plainly: protein-binding microarray (RPBM); PBS, 2% BSA, 51.3 ng/ul salmon testes DNA, 50 uM zinc acetate, 200 nM TF, 25 C, 1 h; high values mean tight binding. The conditions noted are these: protein: recombinant; tags: N-terminal polyhistidine and DsRed monomer fusion (pET32a); label: CyDye5-dUTP incorporated in the synthesized complementary strand; 3' TTTTT single-stranded linker to array surface; dsDNA, one strand shown. In a few lines: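 Transcription factors, each fused N-terminally to a polyhistidine tag and DsRed, were expressed in E. coli BL21-CodonPlus and purified on Ni–NTA. A custom Agilent array was made double-stranded by primer extension with Cy5-dUTP and blocked with 2% BSA. It was incubated with 200 nM protein in PBS, 2% BSA, salmon testes DNA and 50 µM zinc acetate at 25 °C for 1 h, then washed. The binding signal is per-feature fluorescence intensity (arbitrary units) read on an Axon 4000B scanner.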
With “AAAACATAACAAATTTTCTAGATGAGACTTTGCATATATGCGGAGTCACCTAGTGCAG”, the binding signal is 3590 fluorescence intensity (a.u.).

Turning to “AGCTTCAGATTGAACGACCAATACTATATGCCAATTGAATCGGAGTCACCTAGTGCAG”, the binding signal was 4260 fluorescence intensity (a.u.).

With “CAAAATTGAAAACTTCTTATTTGAAATTCAAAACTTTCAACGGAGTCACCTAGTGCAG”, the binding signal was 10200 fluorescence intensity (a.u.).

Consider “CGTACTTAATTTTATGATCTACAATCGTTAGGCCATGTGACGGAGTCACCTAGTGCAG”, for which the binding signal is 8690 fluorescence intensity (a.u.).

In the case of “AGCAGCATGATTAGTACAGCACACCTTTGCGGATCCAATGCGGAGTCACCTAGTGCAG”, the binding signal was 11500 fluorescence intensity (a.u.).

As to “CTGCGAAATTGATAACAAAGTGAACAAGGCCTTAATCAACCGGAGTCACCTAGTGCAG”, the binding signal is 30100 fluorescence intensity (a.u.).

With “CTAAATTTTACTAAAATTTAGTAAGGTTTATTTAGGCCACCGGAGTCACCTAGTGCAG”, the binding signal was 15500 fluorescence intensity (a.u.).

For “TTATAATTGACACTACGAGAATGGGTCTTTACTGCCGGTTCGGAGTCACCTAGTGCAG”, the binding signal is 57700 fluorescence intensity (a.u.).

For “GGTGAAATTAATCTCCTGGCAAATTAAGTCAAGATGCACCCGGAGTCACCTAGTGCAG”, the binding signal was 12000 fluorescence intensity (a.u.).

In the case of “CGAGATTGGGACATGCGTGCAAGTCACCACAAGCTCTCTCCGGAGTCACCTAGTGCAG”, the binding signal was 10500 fluorescence intensity (a.u.).

For the sequence “AGGTTAATTTAGCAAATACACTGTAGCAATCAAGCGGCTCCGGAGTCACCTAGTGCAG”, the binding signal is 14100 fluorescence intensity (a.u.).

On to “ATTTGATTATTCAAATGCAGGTGGAGTCAATGAGCAACCACGGAGTCACCTAGTGCAG”, for which the binding signal is 8370 fluorescence intensity (a.u.).

For the sequence “GAATCACCTCGTTGATTTGATCTTATCGCGAGTATGATGGCGGAGTCACCTAGTGCAG”, the binding signal was 4270 fluorescence intensity (a.u.).

Regarding “ACTAAATCAAAGATTAACAGTAGCAGCAGAGTAAAGAGAGCGGAGTCACCTAGTGCAG”, the binding signal was 11400 fluorescence intensity (a.u.).

For the sequence “TACTATGATTTTCTTTGAATTCAGGTCCTTGCGATTCCAGCGGAGTCACCTAGTGCAG”, the binding signal was 3510 fluorescence intensity (a.u.).

As to “TTTAAACCACTATAATTTAATACGTAAAGAAACAGCAACTCGGAGTCACCTAGTGCAG”, the binding signal was 3680 fluorescence intensity (a.u.).

For “TTTTATTAAATTTAACATTGAATATATTCTCTGATAGTTTCGGAGTCACCTAGTGCAG”, the binding signal is 8320 fluorescence intensity (a.u.).

As to “TTGATATAATATTCTATTAATCCTATTAAGTCGTGGGCCGCGGAGTCACCTAGTGCAG”, the binding signal was 5340 fluorescence intensity (a.u.).

Take “CTTTGACATAACAACCTTCCCATAACTCCTGTTTTAACCCCGGAGTCACCTAGTGCAG”: the binding signal was 9330 fluorescence intensity (a.u.).

“CCGGATTAATAGATCGACCGATCGATCACACTCGCCTCCACGGAGTCACCTAGTGCAG”: the binding signal was 21900 fluorescence intensity (a.u.).

In the case of “CGCGTTGATTAATTAGTCAGTTCGTTAACAACCTCGACTACGGAGTCACCTAGTGCAG”, the binding signal was 53000 fluorescence intensity (a.u.).

Regarding “AGCCAACTGTCGACTTCAAATTAACTATAGTTAATTTTAGCGGAGTCACCTAGTGCAG”, the binding signal was 6640 fluorescence intensity (a.u.).

For the sequence “ACCCGGCCCCACGCGTCAGTGAAACCCAACAGTCTCCTGACGGAGTCACCTAGTGCAG”, the binding signal is 15200 fluorescence intensity (a.u.).

Take “ATGATGATTGTTAGTGGATGATGATGTGTCATCTTGTTAACGGAGTCACCTAGTGCAG”: the binding signal was 38400 fluorescence intensity (a.u.).

As to “ATTATTTCTTAATTGGATTCTAGTAACAGTTAATTAAGGACGGAGTCACCTAGTGCAG”, the binding signal was 23200 fluorescence intensity (a.u.).

Turning to “CAGAGATTGAGAATAATCAAGCAATCAGTTCCAAACAAACCGGAGTCACCTAGTGCAG”, the binding signal is 16500 fluorescence intensity (a.u.).

“AATCAATCATTTGTTTCTTACTTGGAGTTCGCCTGGTTACCGGAGTCACCTAGTGCAG”: the binding signal was 33600 fluorescence intensity (a.u.).

For “TCTTTGACTTAACTGCACCCAAGTTATTGCATGCTCTCTTCGGAGTCACCTAGTGCAG”, the binding signal was 4900 fluorescence intensity (a.u.).

Take “GTTTGCTTCCATCATTCAATCATTACCTTTCAGGAAGATGCGGAGTCACCTAGTGCAG”: the binding signal was 10600 fluorescence intensity (a.u.).

As for “ATTAATAGATCGGTATTACATGATTTGAAGTTTTGAACTCCGGAGTCACCTAGTGCAG”, the binding signal was 13200 fluorescence intensity (a.u.).

For the sequence “ACTCCTGTTTAATTATTATTATTGGCTATTCCTCCCTCGCCGGAGTCACCTAGTGCAG”, the binding signal is 12300 fluorescence intensity (a.u.).

Regarding “ATGATTACAATATATTAGAGTTATAACTATCCTCGATGAACGGAGTCACCTAGTGCAG”, the binding signal was 18200 fluorescence intensity (a.u.).

With “CATTGATGGATTCACAACACCCGCTCTTGCATGAACCGATCGGAGTCACCTAGTGCAG”, the binding signal is 18100 fluorescence intensity (a.u.).

For the sequence “GATGGGCCTATTACAATTATTGATTGTTGTTATGTTTGCACGGAGTCACCTAGTGCAG”, the binding signal was 12800 fluorescence intensity (a.u.).

As to “GATATTCTAGTTACCACTTAATTAGCAGCCCTGATATTTGCGGAGTCACCTAGTGCAG”, the binding signal was 4610 fluorescence intensity (a.u.).

As for “AAGCTAATCGGCAAAGAAAATTGAATTGATCTACTTCTAACGGAGTCACCTAGTGCAG”, the binding signal was 3650 fluorescence intensity (a.u.).

As for “TTATATAAATTGGCTATTAGATTGGCTACAAATGAATTAGCGGAGTCACCTAGTGCAG”, the binding signal is 31600 fluorescence intensity (a.u.).

As for “CTAAAATTGAGAAATTGAGGGAGTATTTATCTGAAATCATCGGAGTCACCTAGTGCAG”, the binding signal is 6180 fluorescence intensity (a.u.).

For “ATGGTGGCTGAAGGGGTTGGATTGGATGAGGTGACATATACGGAGTCACCTAGTGCAG”, the binding signal is 3360 fluorescence intensity (a.u.).

With “TGTATTTAAAATTGATACATCTAGCCTAATTTCAACCGAACGGAGTCACCTAGTGCAG”, the binding signal is 4970 fluorescence intensity (a.u.).

As for “TCAGTTAATTAGTAGTTGCTTGACTGCTGCTAAGCATCCCCGGAGTCACCTAGTGCAG”, the binding signal is 48300 fluorescence intensity (a.u.).

Take “AATTTTACATTAAATTGCACAGTCAAAAGCTGCATGGTTACGGAGTCACCTAGTGCAG”: the binding signal was 3820 fluorescence intensity (a.u.).

“TTATTATTTATTAGATAATGGATAGAAATCTACAAGTGGACGGAGTCACCTAGTGCAG”: the binding signal was 6060 fluorescence intensity (a.u.).

In the case of “GTAAATACACTAAAATTACATATGTAATTTAAGGACTTACCGGAGTCACCTAGTGCAG”, the binding signal was 12300 fluorescence intensity (a.u.).

In the case of “CCAGACAATGCTTTGATTATCCATTGCAAGCATAACTAGTCGGAGTCACCTAGTGCAG”, the binding signal is 6770 fluorescence intensity (a.u.).

For the sequence “AATATCAATTTGTTGCAACATTAGCGGCATGTTTTAGTTTCGGAGTCACCTAGTGCAG”, the binding signal was 4170 fluorescence intensity (a.u.).

For the sequence “GTCCCATAATAATTAGTTCTGGATTGTTTAGCCTATACTACGGAGTCACCTAGTGCAG”, the binding signal was 17700 fluorescence intensity (a.u.).

Regarding “TCGTTTCAATTTCAATTAAACTTCTAATTTTGATGTGAACCGGAGTCACCTAGTGCAG”, the binding signal was 25100 fluorescence intensity (a.u.).

For “TAGAGATTTAATTGTAACAAATAGGGCGCTGTATTCGGATCGGAGTCACCTAGTGCAG”, the binding signal was 15100 fluorescence intensity (a.u.).

“ATGCACTAATTATATGCTATGCACACTGTTTAAGCATCATCGGAGTCACCTAGTGCAG”: the binding signal was 12000 fluorescence intensity (a.u.).

With “TGATAATTTATATTGTATTTCATTGTAGCCTATGGCTGTGCGGAGTCACCTAGTGCAG”, the binding signal is 24400 fluorescence intensity (a.u.).

Consider “GGGACTAACTTCTCAATCTAACTCCAGAAGCAGAGTTTGGCGGAGTCACCTAGTGCAG”, for which the binding signal is 8000 fluorescence intensity (a.u.).

With “CCTCAACAAAATTTACAAATTTAATATCAGGATCAGGGAGCGGAGTCACCTAGTGCAG”, the binding signal is 6520 fluorescence intensity (a.u.).

Turning to “TAATCTTGAATTATTGATTTATTTATGGCTTCAGCTTTCACGGAGTCACCTAGTGCAG”, the binding signal is 7480 fluorescence intensity (a.u.).
